For the test, the system named is Plasmodium falciparum NF54 stage V gametocytes. The test is described as follows: viability index relative to DMSO control (fraction); higher = less gametocyte killing. Particulars: 2.5 µM, incubation time: 72 h. The gist of the method:
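Compound at 2.5 µM was incubated for 72 hr at 37°C under low oxygen with P. falciparum NF54 stage V gametocytes (0.75% gametocytemia, 1.25% hematocrit, 10 µl, serum-free screening medium) in 1,536-well plates. Staining used 3 µl of 2.5 µM MitoTracker Red CMXRos plus 0.13% saponin for one to two hours, and red particles of 20–70 µm2 were counted in one imaged field per well. Each viability index is that count relative to the plate mean of solvent-only wells.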

Where [1] appears, read: library set: Broad Institute DOS.

± gives the uncertainty stated by the source. The full ranking holds about 9,900 compounds; the median of “viability index relative to DMSO control” is about 1, and the lowest 2% start at about 0.85. This is one part of the list.

The molecule `C[C@H](NC(=O)C[C@@H]1C[C@H]2c3cc(NS(=O)(=O)c4ccc(F)cc4)ccc3O[C@H]2[C@H](CO)O1)c1ccccc1` had a viability index under setting [1] of 1.03 ± 0.021.
As for `COCC(=O)N1[C@@H](C#N)[C@@H](c2ccc(C#Cc3ccccc3F)cc2)[C@@H]1CO`, the viability index under setting [1] turned out to be 1.12 ± 0.068.
The same measure, in the same setting: for `CO[C@H](C(=O)N(C)C[C@@H]1OCc2ccccc2-c2ccccc2C(=O)N([C@H](C)CO)C[C@H]1C)c1ccccc1` the value was 0.947 ± 0.04; for `C[C@H](NC(=O)C[C@@H]1C=C[C@@H](NC(=O)c2cccnc2)[C@@H](CO)O1)c1ccccc1`, 0.8802 ± 0.0082; for `C[C@@H]1CN([C@H](C)CO)C(=O)Cc2cc(NS(=O)(=O)c3cn(C)cn3)ccc2O[C@H]1CN(C)Cc1ccc2c(c1)OCO2`, 1.06 ± 0.046.
Same read-out and setting: as for `O=C(N[C@H]1C=C[C@@H](CC(=O)N2CCN(c3ccccc3)CC2)O[C@H]1CO)c1ccccc1`, the figure is 1.04 ± 0.087.
The same measure, in the same setting: for `C[C@@H]1CN([C@H](C)CO)C(=O)c2cc(NS(=O)(=O)c3cccs3)ccc2O[C@H]1CN(C)S(=O)(=O)c1ccc(Cl)cc1` the value was 0.977 ± 0.069; for `COc1ccc(C#Cc2ccc([C@H]3[C@H]4CN(C)CCCCN4[C@H]3CO)cc2)cc1`, 0.972 ± 0.078.
Regarding `Cc1ccc(OC(=O)N(C)C[C@@H]2OCc3ccccc3-c3ccccc3C(=O)N([C@H](C)CO)C[C@H]2C)cc1`, the viability index under setting [1] worked out at 0.834 ± 0.091.
Turning to `O=C(CCN1CCCCC1)NCC[C@@H]1CC[C@@H](NS(=O)(=O)c2cccc(Cl)c2)[C@@H](CO)O1`, the viability index under setting [1] stood at 0.965 ± 0.015.
The same measure, in the same setting: for `COCC(=O)N1[C@H](C(=O)N2CCN(C)CC2)[C@@H](CO)[C@@H]2Cn3c(ccc(C4=CCCCC4)c3=O)[C@@H]21` the value was 1.02 ± 0.048.
The same measure, in the same setting: as for `CCCC(=O)N1C[C@@H]2[C@H](c3ccccc31)[C@H](CO)N2C(=O)Nc1ccc(F)cc1`, the figure is 1.05 ± 0.19.
On the same count and under the same terms, as for `CO[C@@H]1CN(C)C(=O)c2cc(NC(=O)Cc3ccccc3)ccc2OC[C@@H](C)N(C(=O)c2ccccc2F)C[C@@H]1C`, the figure is 0.985 ± 0.018; as for `N#C[C@H]1[C@@H](c2ccccc2/C=C/c2ccccc2)[C@@H](CO)N1S(=O)(=O)c1cccc(F)c1`, 1.082 ± 0.01.
Under setting [1], `CN1C(=O)c2cc(NC(=O)c3ccc(C(F)(F)F)cc3)ccc2OC[C@H]2O[C@@H](CC(=O)NCc3ccc4c(c3)OCO4)CC[C@H]21` registered a viability index of 1.13 ± 0.015.
The molecule `CCCC(=O)Nc1ccc2c(c1)OC[C@H](C)NC[C@@H](C)[C@H](OC)CN(C)C2=O` displayed a viability index under setting [1] of 1.03 ± 0.015.
Same read-out and setting: as for `CCC(=O)Nc1ccc2c(c1)C(=O)N(C)C[C@@H](OC)[C@@H](C)CN(Cc1nccs1)[C@@H](C)CO2`, the figure is 1.09 ± 0.052.
On the same count and under the same terms, for `COc1ccccc1-c1ccc([C@H]2[C@@H]3CN(C(=O)c4ccncc4)C[C@H]2N3)cc1` the value was 1.06 ± 0.064.
As for `CC(C)NC(=O)N[C@H]1CC[C@H](CC(=O)NCCCN(C)C)O[C@@H]1CO`, the viability index under setting [1] turned out to be 0.951 ± 0.1.
Still for that read-out and setting: for `O=C(CN1CCOCC1)N1CCCCN2[C@H](CO)[C@@H](c3ccc(Br)cc3)[C@H]2C1` the value was 1.008 ± 0.0032; for `CN1C(=O)c2cc(NS(C)(=O)=O)ccc2OC[C@@H]2O[C@@H](CC(=O)NCc3ccccc3)CC[C@H]21`, 1.13 ± 0.11.
Still for that read-out and setting: for `CN1C(=O)c2cc(NC(=O)Nc3cccc(C#N)c3)ccc2OC[C@H]2O[C@@H](CC(=O)Nc3ccc4c(c3)CCC4)CC[C@@H]21` the value was 1.04 ± 0.081; for `O=C(C[C@H]1C=C[C@H](NC(=O)Nc2ccccc2F)[C@H](CO)O1)NCc1ccc(-c2ccccc2)cc1`, 1.06 ± 0.066.
In turn, `O=C(Cc1ccccn1)N[C@@H]1CC[C@H](CCNS(=O)(=O)c2cccc(F)c2)O[C@@H]1CO` returned a viability index under setting [1] of 1.02 ± 0.015.
Under “library set: Broad Institute Blood Stage”, `O=C(c1cccc(F)c1)N1CC(=O)N2[C@H](C1)[C@@H](c1ccc(-c3cccnc3)cc1)[C@@H]2CO` returned a viability index of 0.817 ± 0.042.
The molecule `O=C(C1CCC1)N1CC(=O)N2[C@H](CO)[C@H](c3ccc(Br)cc3)[C@H]2C1` gave a viability index under setting [1] of 1.04 ± 0.012.
For `C/C=C/c1ccc([C@H]2[C@H]3CNC[C@@H]2N3S(=O)(=O)c2c(C)noc2C)cc1`, the viability index under setting [1] is 0.956 ± 0.02.
On the same count and under the same terms, for `O=C(C[C@H]1C[C@H]2c3cc(NC(=O)c4ccc5c(c4)OCO5)ccc3O[C@H]2[C@H](CO)O1)NCCN1CCCCC1` the value was 1.05 ± 0.031.
Turning to `CO[C@H](CN(C)C(=O)C1CCOCC1)[C@@H](C)CN(C(=O)Nc1ccc(C(F)(F)F)cc1)[C@@H](C)CO`, the viability index under setting [1] turned out to be 1.01 ± 0.056.
`O=C(Nc1cccc(Cl)c1)N[C@@H]1CC[C@@H](CCn2cc(Cc3ccccc3)nn2)O[C@H]1CO`: the viability index under setting [1] worked out at 1.13 ± 0.06.
The same measure, in the same setting: as for `CCS(=O)(=O)N1C[C@@]2(C1)CN(C)[C@@H](CO)c1c2c2ccc(OC)cc2n1C`, the figure is 1.09 ± 0.099.
In the case of `O=C(c1cccnc1)N1CC2(C1)[C@@H](c1ccccc1)[C@@H](CO)N2C(=O)CC1CC1`, the viability index under setting [1] is 1.1 ± 0.013.
Same read-out and setting: for `CC(C)C#Cc1ccc([C@@H]2[C@H]3CN(C(=O)c4ccc5c(c4)OCO5)CC(=O)N3[C@H]2CO)cc1` the value was 1.18 ± 0.046; for `C/C=C/c1cnc2c(c1)C(=O)N([C@@H](C)CO)C[C@@H](C)[C@@H](CN(C)CC1CCOCC1)O2`, 1.06 ± 0.042.
In the case of `CCCNC(=O)N1C[C@@H](O)COC[C@H]2O[C@H](CC(=O)OC)CC[C@@H]21`, under setting [1], the viability index was 1.01 ± 0.076.

The values are drawn from the supplement of paper PMC4723716.
